Hit rate of the full screen: of about 44,000 compounds, about 340 (0.77%) were called active. Not shown: some 5% with an inconclusive outcome. Calls come from the whole dose curve; as a rule, active = well fitted inhibition curve with a large enough effect; inconclusive = small, poorly fitted or top-dose-only effect; inactive = flat fitted curve, though single readings scatter. The list shows a part of the results.
assay: Acumen qHTS Assay for Inhibitors of the mTORC1 Signaling Pathway in MEF (Tsc2-/-, p53-/-) Cells: Sytravon; settings: phospho-rpS6 immunofluorescence/PI, 24 h; series mostly up to 38.3 µM; activity change, negative = inhibition: at the top concentration;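 note: plate controls were DMSO for no effect and rapamycin for full effect; nearly all actives have a fitted effect of over 50% in size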
In short: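 Immunofluorescence of rpS6 phosphorylation in Tsc2-/-, p53-/- MEFs after 24 h compound exposure, normalized to propidium iodide signal. Activity is expressed as % positive cells, thresholded with 7.5 nM rapamycin.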

Activity change, negative = inhibition, inactive:
CC(=O)N1c2ccc(S(=O)(=O)N3CCN(c4ccc(C)cc4C)CC3)cc2CC1C (stereo not given) -18.6%, O=C(Cn1ccn(-c2ccc(F)cc2)c(=O)c1=O)NCCc1ccccc1 1.91%, COc1ccccc1N(CC(=O)NCCSCc1ccccc1Cl)S(C)(=O)=O 0.416%, COC(=O)CSc1nc2c(cnn2-c2ccc(F)cc2)c(=O)[nH]1 0.26%, CCOc1ccccc1NC(=O)C(CC(C)C)NS(=O)(=O)c1ccc2c(c1)CCN2C(C)=O (stereo not given) -4.17%, Cc1oc(-c2cccc(Br)c2)nc1CN1CCC(C(=O)NCCc2ccc(Cl)cc2)CC1 -1.36%, CCc1ccccc1NC(=O)Cn1ncc2c(C)n(Cc3ccccc3F)c(C)c2c1=O -6.67%, CC(C)CNC(=O)CCSc1nc(-c2ccc3c(c2)OCO3)cc(C(F)(F)F)n1 -4.83%, O=C(Cn1c(=O)n(Cc2nc(-c3ccccc3)no2)c(=O)c2cc3c(cc21)OCO3)Nc1ccc(Cl)cc1 -8.61%, Cc1ccc(C)c(N2CCN(c3ccc(NC(=O)c4cccs4)cc3C(=O)O)CC2)c1 1.3%, CCOc1ccc(-n2c(=O)c3c(C)c(C)sc3n(CC(=O)c3ccccc3)c2=O)cc1 -16.9%, CCN(CC)CCCNC(=O)c1c(C)oc2ncn(CC(C)C)c(=O)c12 1.07%, Cn1c(=O)n(C)c2cc(NS(=O)(=O)c3ccc(Br)cc3)c(NCc3ccccc3)cc21 0.632%, CCc1ccc(-n2nc(C)c3c(C)cc(=O)n(CC(=O)Nc4ccc(C)c(F)c4)c32)cc1 -6.87%, CCCCN(C)S(=O)(=O)c1cc(-c2nnc3c4ccccc4c(C)nn23)ccc1C 1.12%, COc1cc(Br)c(C2CC(=O)Nc3cc(OC)c(OC)c(OC)c32)cc1OC (stereo not given) 10.4%, CC1CCc2c(sc(NC(=O)CCCOc3ccc(C(C)(C)C)cc3)c2C(N)=O)C1 (stereo not given) 16.5%, Nc1c(-c2nc(-c3ccc(Cl)cc3)cs2)c2ccccn2c1C(=O)c1ccc2c(c1)OCO2 -3.36%, Cc1c(C)n(Cc2ccc(Cl)cc2)c2ccc(C(=O)NCCc3ccc(S(N)(=O)=O)cc3)cc12 -2.68%, COCCCNC(=O)c1cc2c(=O)n3cccc(C)c3nc2s1 -12.3%, O=S(=O)(Nc1cccc(-c2ccc(N3CCCCC3)nn2)c1)c1cccc(F)c1 -3.18%, CCCCc1nc2ccccc2n2c(-c3ccc(C)cc3)c3c(=O)n(C)c(=O)n(C)c3c12 0.306%, COc1ccc(C2C(=O)N(C3CCC(C)CC3)CC(=O)N2CCc2ccccc2)cc1OC (stereo not given) 8.7%, CSc1cccc(NC(=O)CN(c2ccccc2)S(=O)(=O)N(C)C)c1 -2.47%, CC1CCN(S(=O)(=O)c2ccc3c(c2)N(CC(=O)NC(C)c2ccccc2)C(=O)CO3)CC1 (stereo not given) -7.64%, Cc1cc(N2CCCCC2)nc2ccc(NC(=O)c3cccc(F)c3)cc12 -15.6%, CCCc1nnc(NC(=O)Cc2coc3cc(C)cc(C)c23)s1 1.13%, Cc1ccc(C(=O)N2CCc3cc(CNC(=O)COc4ccccc4)ccc32)cc1 -17.2%, CCOc1ccc(Nc2nc3ccccc3n3c(CC)nnc23)cc1 -16.6%, CCCN1CCN(CCCNC(=O)c2cnn(-c3ccc(F)cc3)c2-n2cccc2)CC1 0.438%, O=S(=O)(c1cccc(C(F)(F)F)c1)n1c(/C=C/c2ccccc2)nc2ccccc21 -0.93%, O=C(Cn1c(=O)n(-c2ccccc2)c(=O)c2sc3ccccc3c21)N1CCCC1 7.77%, CC(C)c1ccc(NC(=O)CN2C(=O)COc3ccc(S(=O)(=O)Nc4ccccc4)cc32)cc1 -8.66%, O=[N+]([O-])c1cc(-c2nc(-c3cccnc3)no2)ccc1NCc1ccccc1 1.35%, O=C(Nc1ccc(Br)cc1)C1CCN(S(=O)(=O)c2cccc3nsnc23)CC1 0.553%, CC(C)OCCCNC(=O)CCCn1c(SCC(=O)c2ccc(F)cc2)nc2c(sc3ccccc32)c1=O -4.34%, Cc1ccc2oc(=O)c3cnn(CC(=O)Nc4cccc(C(F)(F)F)c4)c3c2c1 -1.58%, O=C(NCC(c1ccco1)S(=O)(=O)c1ccc(Cl)cc1)c1ccccc1F (stereo not given) -2.94%, COc1ccc(CCNC(=O)c2nnc(Cc3ccc(Cl)cc3)o2)cc1OC -26.8%, COc1ccc(-c2nn3c(=O)cc(CN4CCN(C(=O)Nc5ccc(C)c(Cl)c5)CC4)nc3s2)cc1 -5.7%, CCOC(=O)c1sc(NC(=O)c2cc(CC)on2)c(C(=O)OCC)c1C 3.48%, Cc1ccc(NS(=O)(=O)c2ccc3[nH]c4c(c3c2)CCCCCC4)cc1Cl -18.4%, COCC(=O)N1c2nc(C(C)C)nn2C2(CCCCC2)[C@@H]2CCCC[C@@H]21 0.405%, Cc1c(C(=O)NCc2ccccc2)sc2nc3n(c(=O)c12)CCC3 -4.66%, CCCOC(=O)c1ccc(NC(=O)Cc2csc(C)n2)cc1 -9.52%, CSc1nc2sc3c(c2c(=O)n1-c1ccccc1C)CCCC3 -13.6%, CCC(=O)N1CCc2cc(Br)cc(S(=O)(=O)NCc3ccc(Cl)cc3)c21 -3.1%, Cc1cccc(N2C(=O)CSC23C(=O)N(Cc2cccc(C(F)(F)F)c2)c2ccccc23)c1 (stereo not given) -6.5%, C=Cc1ccc(CSc2nc(-c3ccccc3Cl)nc3c2Cc2c(CO)cnc(C)c2O3)cc1 -3.24%, Cc1nc(N2CCCC2)c2c(C(=O)N3CCN(c4cccc(Cl)c4)CC3)c(C)oc2n1 2.41%, COc1ccc(N2CCN(C(=O)c3ccc(CS(=O)(=O)c4ccc(Br)cc4)o3)CC2)cc1 2.43%, CCN(c1ccccc1)c1nnc(NC(=O)Nc2cccc(Br)c2)s1 4.22%, O=C1CC(c2nc3ccccc3n2CCCOc2ccccc2)CN1c1ccc(F)cc1 (stereo not given) 1.03%, Cc1cc(C)cc(-n2ccn(CC(=O)Nc3ccccc3C(F)(F)F)c(=O)c2=O)c1 -5.89%, CN(C)CCNC(=O)CCCN1C(=O)c2cccnc2Oc2ccc(Cl)cc21 2.13%, Cc1ccc(N2CC(C)Cn3c2nc2c3c(=O)n(CC(=O)O)c(=O)n2C)cc1 (stereo not given) 1.61%, CCN(c1ccc(OC)cc1)S(=O)(=O)c1nnc(NC(=O)c2ccccc2Cl)s1 -3.62%, CCOc1ccc(C2c3c(oc4ccc(C)cc4c3=O)C(=O)N2Cc2ccc3c(c2)OCO3)cc1OC (stereo not given) -26%, Cc1ccc(CNC(=O)c2ccc(CSCc3ccc(C)cc3)o2)cc1 0.896%, COc1ccc(NC(=O)c2sc3nc(C)c(C(=O)Nc4ccc(C)cc4C)c(-c4ccc(C)o4)c3c2N)cc1 -3.33%, Cc1ccc(Nc2nc(C)cc(C)n2)c(C(=O)O)c1 -3.31%, CCc1ccc(NC(=O)CN2C(=O)C3(SCC(=O)N3c3ccccc3)c3ccccc32)cc1 (stereo not given) -4.82%, CC1(C)CC(=O)c2cc(-c3nc(-c4ccc(Cl)cc4)cs3)c(=O)n(-c3ccc(Cl)cc3)c2C1 0.0376%, Cc1ccc(Cl)cc1NC(=O)CSC1=Nc2ccccc2C2=NC(Cc3ccccc3)C(=O)N12 (stereo not given) -19.7%, COc1ccc(NC(=O)Cn2nc(-c3ccncc3)ccc2=O)cc1Cl 1.16%, C#CC(C)(CC)NC(=O)c1cnn2c(C(F)F)cc(-c3ccccc3OC)nc12 (stereo not given) -2.44%, Cc1cc(C)n(CCc2nc3c4ccccc4nc(N4CCN(c5ccccc5F)CC4)n3n2)n1 -0.0434%, COc1ccc(CCNc2ncnc3c2cnn3-c2cccc(Cl)c2)cc1 5.62%, CC(C)CCNC(=O)c1ccc2c(c1)NC(=O)C(CS(=O)(=O)Cc1cccc(Br)c1)N2 (stereo not given) -9.25%, Cc1ccc(NC(=O)/C(C#N)=C/c2ccc(C)o2)cc1 -5.46%, Cc1ccc(Cn2ccnc2SCC(=O)NCc2ccc(F)cc2)cc1 -1.73%, COc1ccc(OCCCCn2c(C3CC(=O)N(c4cccc(Cl)c4)C3)nc3ccccc32)cc1 (stereo not given) -0.44%, CCOC(=O)C1CCN(CC(=O)N2CCCc3c2c(=O)oc2ccc(OCc4ccccc4)cc32)CC1 2.13%, COc1ccc(-c2onc(C)c2C)cc1S(=O)(=O)N(C)Cc1ccco1 4.92%, CN1C(=O)C2(SCC(=O)N2c2cccc(C(F)(F)F)c2)c2ccccc21 (stereo not given) -1.29%, CCOC(=O)C1CCC(CN(Cc2ccc(Cl)cc2)S(=O)(=O)c2ccc(Br)cc2)CC1 (stereo not given) 5.12%, CCCN1CCN(CCNC(=O)Nc2ccc(OC)c(OC)c2)CC1 4.79%, CCS(=O)(=O)N1CCc2cc(C(=O)NCCc3ccccc3)ccc21 -3.3%, CCOc1ccc(NC(=O)c2cn(C)c(=O)c3cc(OC)c(OC)cc23)cc1 -8.1%, CCS(=O)(=O)N1CC(=O)N(c2cccc(Cl)c2C)C(C)(C(=O)NC2CCCCC2)C1 (stereo not given) 3.24%, CCCN(c1ccccc1CC)S(=O)(=O)c1ccc2c(c1)CC(C)N2C(=O)C1CC1 (stereo not given) -17.8%, CCN(CCCNC(=O)c1cc2cc3ccc(C)cc3nc2s1)c1ccccc1 -16.6%, COCCNC(=O)CCCN1C(=O)c2ccccc2Sc2ncccc21 -0.343%, COc1ccc(-c2nc(CSCC(=O)N3CCN(c4ccc(OC)cc4)CC3)c(C)o2)cc1 2.03%, Cc1ccc(NC(=O)c2oc3ccc(S(=O)(=O)N(C)C4CCCCC4)cc3c2C)cc1Cl 11.9%, O=S(=O)(c1cccc(F)c1)N1CCC(c2nc3ccccc3s2)CC1 -3.01%, CCCCN(CCCC)CC(O)Cn1cc(/C=C/C(=O)c2ccccc2)c2ccccc21 (stereo not given) -20.8%, O=c1c(=O)n(-c2cccc(Cl)c2)ccn1Cc1cccc(F)c1 2.66%, CC(=O)N1CCc2cc(S(=O)(=O)NC(CC(C)C)C(=O)NCc3ccccc3)ccc21 (stereo not given) 0.0091%, COc1cccc2c1cc1c(=O)n(CC(=O)NC3CC3)nc(C)n12 3.63%, COc1cccc(-c2nc(CSCC(=O)NCCc3ccc(Cl)cc3)c(C)o2)c1 0.998%, CCCCC(CC)CNC(=O)CCCn1c(=O)[nH]c2ccsc2c1=O (stereo not given) -1.92%, Cc1ccc(-c2nc(N3CCN(c4ccccc4Cl)CC3)c3ccccc3n2)cc1 -2.83%, COc1ccc(C)cc1Nc1nc(-c2cccc(Cl)c2)c2c(n1)-c1ccccc1OC2 -1.22%, COc1cc(-c2nc(Cn3nnc(C(=O)Nc4cc(C)cc(C)c4)c3C)c(C)o2)cc(OC)c1OC -11.5%

Reference: PubChem BioAssay AID493208 (National Center for Advancing Translational Sciences (NCATS), 2011)
